# Laboratory results taken from the supplement of paper PMC10338343.
# ± gives the standard deviation. This is a selection; strong and weak results do not stand in their true shares.
# Test system: MIWI (PIWIL1) piRISC loaded with piRNA #1 (30 nt)
# Assay: pre-steady-state target cleavage rate (min^-1); MIWI and MILI are mouse PIWI proteins and EfPiwi is from a freshwater sponge; tags in brackets are library labels; higher = faster piRNA-guided slicing of the target
# Conditions: guide: piRNA #1 5'p-UGAGGUAGUAGGUUGUAUAGUAUCCAGAGG; auxiliary factor: 500 nM mouse GTSF1
# Summary of the method: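 Cleave-'n-Seq: 1 nM active affinity-purified piRISC with one synthetic guide and 0.1 nM transcribed, DNA-blocked target RNA library were mixed, with or without 500 nM GTSF1 partner protein, in HEPES–potassium acetate buffer at 33 °C for 0–8 or 0–960 min. Uncleaved targets were sequenced and normalised to depth and to weakly complementary targets, three trials were pooled, and k3 was capped at 0.0001 min^-1. The pre-steady-state cleavage rate was fitted […].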
row,Sequence,pre-steady-state target cleavage rate
1,GGAGUGGAUACUAUUCUACCUACUACCUCA,1.04 ± 0.11
2,GGAGACCAUACUAUACAACCUAAUACCUCA,1.11 ± 0.1
3,GGAGACGAUACUAUACAACCUACUACCCUCA,0.895 ± 0.07
4,GGAGACCUAUCAAUAGAACCUACUACCUCA,0.00291 ± 0.0028
5,GGUCUGGAUACUAUAGUACCUACUACCUCA,1.21 ± 0.098
6,GGAGACCUAUGAUAUCAACCUACUGCCUCA,< 0.0001
7,GGAGACCAUUCUAAACAACCUACUACCUCA,0.322 ± 0.053
